# Measured values taken from the RNAGym collection of RNA variant scans (doi:10.7554/elife.90254).
# The source gives no read counts; variants with many changes may rest on few reads.
# B1: LINE1-mini (parent)
# chain: GGCAGAGCUCAACACAGCGUGGCAAAGUGGCUGUGGCUAGACUGCC
# Variants of: B1
# Test: self-cleavage, relative activity (ratio to wild type); higher = more cleavage; in vitro, sequencing; the parent is a self-cleaving ribozyme
row,Variant,self-cleavage
1,GGCAGCGUUCAUCACAGCGUGGUAAAGUGGCUGUGGCUAGAGUGAC [A6C C8U A12U C23U C42G C45A],0.41
2,GGCAGCGUUCAACACGGCGUGGCAAAGUGGCUGUGGUUAGACUGCC [A6C C8U A16G C37U],0.03
3,GGCAGCGUUCAACACAGAGUGGCAAAGUGGCUGUGGCUAGACUGCU [A6C C8U C18A C46U],0.18
4,GGCAGCGCUAAACUCAGCGUGGCAAAGUGGCUGGAGCUCGAUUGCC [A6C C10A A14U U34G G35A A39C C42U],0.02
5,GGCAGCGCUAAACACAGCGUGGCGAAGUGGCUGUGGAGAGACUGCC [A6C C10A A24G C37A U38G],0
6,GGCAGCGCUAAACAUAGCGUGGCAAAGUGGCUGUGGCUAGACUGCC [A6C C10A C15U],0.06
7,GGCAGCGCUAAACACAGCGUGGCAAAGUGGCUGUGGCUAGACUGAC [A6C C10A C45A],0.01
8,GGCAGCGCUAAACACACCGUGGGAAAGUGGCUAUGGCUAGACUGCC [A6C C10A G17C C23G G33A],0.02
9,GGCAGCGCUAAACACAGCGUUGCAAAGUGGCUGUGGCUAGACUGCC [A6C C10A G21U],0.04
10,GGCAGCGCUAAACACAGCGUUGCAAAGUGGCUGUGACUAGACUGCC [A6C C10A G21U G36A],0.03
11,GGCAGCGCUAAACACAGCGUGACAAAGUCGAUGUGGCUAGACUGCC [A6C C10A G22A G29C C31A],0.02
12,GGCAGCGCUAAACACAGCGUGGCAAAUUGGCUGUGACUAGACUGCC [A6C C10A G27U G36A],0.02
13,GGCAGCGCUAAACACAGCGUGGCAAAGUGGCUGUGUCUAGCCUGCC [A6C C10A G36U A41C],0.06
14,GGCAGCGCUAAACACAGCGUGGCAAAGUGGCUGUGUCUACACUGCC [A6C C10A G36U G40C],0.01
15,GGCAGCGCUAAACACAGCGUGGCAAAGUGGCUGUGGCUAGACUUCC [A6C C10A G44U],0.03
16,GGCAGCGCUGAACACAGCGUGGCAAAGUGGCUGUGGCUAGACAGUC [A6C C10G U43A C45U],0
17,GGCAGCGCUUAACAAAGCGUGGCAAAGUGGCUGUGGCUAGACUGCC [A6C C10U C15A],0.03
18,GGCAGCGCUUAACACAGCGUGGCAAAGUGGCUGUGGCUAGAGUGCC [A6C C10U C42G],0.02
19,GGCAGCGCUUAACACAGCGUGGCAAAGGGGCUGUGGCUAGACUGCC [A6C C10U U28G],0.05

row,Variant,self-cleavage
1,GGCAGCGCUCAAAACAGCGUGGCAACGUGGCUGUGGCUAGACUGCC [A6C C13A A26C],0.05
2,GGCAGCGCUCAAAACAGCGUUGCAAAGUGGCUGUGGCUAGCCUGCC [A6C C13A G21U A41C],0.03
3,GGCAGCGCUCAAAACAGCGUGGCAAAGUGGCUGUAUCUAGACUUCC [A6C C13A G35A G36U G44U],0.06
4,GGCAGCGCUCAAAACAGCGUGGCAAAGUGGCUGUGGCUAUACUGCC [A6C C13A G40U],0.03
5,GGCAGCGCUCAAGACAGCGUGGCAAAGUGGCUGUGGCUAGACUGAC [A6C C13G C45A],0.04
6,GGCAGCGCUCAAGACAGCGUGGCAAAGUCGCUGUAGCUAGACUGCC [A6C C13G G29C G35A],0.05
7,GGCAGCGCUCAAUGCAGCGUGCCAAAGAGUCUGUGGCUCGAAUGCC [A6C C13U A14G G22C U28A G30U A39C C42A],0.01
8,GGCAGCGCUCAAUACAGCGUGGCGAAGUGGCUGUGGCUAGACCGCC [A6C C13U A24G U43C],0.02
9,GGCAGCGCUCAAUACAGCGUGGCAAAUUGGCUGUGGCUAGACUGCC [A6C C13U G27U],0.09
10,GGCAGCGCUCAACAAGGCGUGGCAAAGUGGCUGUGGCUAGACUGCC [A6C C15A A16G],0.04
11,GGCAGCGCUCAACAAAGUGUGGCAGAGUGGCUGUGGCUAGACUGCC [A6C C15A C18U A25G],0.08
12,GGCAGCGCUCAACAAAGCGUGGCAAAGAGGCUGUGCCUAGACUGCC [A6C C15A U28A G36C],0.03
13,GGCAGCGCUCAACAGAGCGUGUCAAAGUGGCUGUGGAUACACUGCC [A6C C15G G22U C37A G40C],0
14,GGCAGCGCUCAACAUAGCGUGGCUAAGUGGCAGUGGCUAGACUGCC [A6C C15U A24U U32A],0.02
15,GGCAGCGCUCAACAUAGCGUGGCAAACUGGUUGUGGCUAGAUUGCC [A6C C15U G27C C31U C42U],0.1
16,GGCAGCGCUCAACAUAGCGUGGCAAAGUGGCUGUGACUAGCCUGCA [A6C C15U G36A A41C C46A],0.05
17,GGCAGCGCUCAACACAGAGUGGCAAAGUGGCUGUGGCUAAACUGCC [A6C C18A G40A],0.03
18,GGCAGCGCUCAACACAGGGUGGCAAACUGGCUGUGGUUUGACUGCC [A6C C18G G27C C37U A39U],0.02
19,GGCAGCGCUCAACACAGGGUGGCAAAGUGGCUGUGACUAGACUGCC [A6C C18G G36A],0.06

row,Variant,self-cleavage
1,GGCAGCGCUCAACACAGGGUGGCAAAGUGGCUGUGUCUAGACUGCC [A6C C18G G36U],0.03
2,GGCAGCGCUCAACACAGCGUGGAAAAGUGGCUGUUGCUAGACUGCC [A6C C23A G35U],0.09
3,GGCAGCGCUCAACACAGCGUGGAAAAGUGGCUGAGGCUAGACUGCC [A6C C23A U34A],0.03
4,GGCAGCGCUCAACACAGCGUGGGAAGGUGGUUCUGGCUAGACUGCC [A6C C23G A26G C31U G33C],0.19
5,GGCAGCGCUCAACACAGCGUGGUAAAGUGGCUGUGGGUAGACUGCA [A6C C23U C37G C46A],0.03
6,GGCAGCGCUCAACACAGCGUGGUAAAGUGGCAGUGGCUCGACUGCC [A6C C23U U32A A39C],0.04
7,GGCAGCGCUCAACACAGCGUGGCAAAGUGGAUGUGGCUAGACUGUC [A6C C31A C45U],0.03
8,GGCAGCGCUCAACACAGCGUGGCAAAGUGGAUGUGGCUAGACUACC [A6C C31A G44A],0.08
9,GGCAGCGCUCAACACAGCGUGGCAAAGUGGUUGUAGCUUGUCUGCC [A6C C31U G35A A39U A41U],0.04
10,GGCAGCGCUCAACACAGCGUGGCAAAGUGGCUGUGGCUAGAACGCC [A6C C42A U43C],0.21
11,GGCAGCACUCAACGCAGCGUGGCAAAGUGGCUGUGGCUAGACUGCC [A6C G7A A14G],0.12
12,GGCAGCACUCAACAGAGCGUGGCAAAGUGGCUGUGGCUAGACUGCC [A6C G7A C15G],0.23
13,GGCAGCACUCAACACAGCGUGGGAAAGUGGAUGUGGCUAGACUGCC [A6C G7A C23G C31A],0.05
14,GGCAGCACUCAACACAGCGUGGCAAAGUGGUUGUGGCUAGACUGCC [A6C G7A C31U],0.08
15,GGCAGCACCCCACACAGCGUGGCAAAGUGGGUGUGGCUAGACUGCC [A6C G7A U9C A11C C31G],0.02
16,GGCAGCACUCAACACAGCGUGGCAAAGUGGCUGUGGCGAGACGGCG [A6C G7A U38G U43G C46G],0.03
17,GGCAGCCCUCCACACAGCGUGGCAAAGUGGCUGUGGCUAGACUGGC [A6C G7C A11C C45G],0.03
18,GGCAGCCCUCAACACAGCGUGGCGAAGUCGCUGUGGCUAGACUGCC [A6C G7C A24G G29C],0.02
